The whole screen tested about 410,000 compounds, of which about 5,000 (1.2%) were called active. The inconclusive results got no clear call from the source; some entries with a clear call stand among them for comparison. The call rests on the fitted dose curve; in most records, active means well fitted inhibition curve with a large enough effect; inconclusive means small, poorly fitted or top-dose-only effect; inactive means no such curve, though single readings can be large or run the other way. A potency beside an inconclusive call is a rough fit, not a confirmed value.
Test: qHTS for Inhibitors of TGF-b; further: nearly all actives have a fitted effect of over 65% in size
Details: HepG2 CAGA-GFP TGF-b/SMAD3 reporter, GFP fluorescence, 18 h, TGF-beta stimulated, 500 pg/mL final; series mostly up to 46.1 µM; activity, negative = inhibition: at the top concentration
In short: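 HEPG2 CAGA-GFP, 1000 cells/well; 2 h settle, 37 C; cpd via pin tool; TGF-b 500 pg/mL final; 18 h, 37 C; GFP imaging ex488/em500-530; %Activity normalised to -TGF-b and +DMSO controls; CRC fit, curve class.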
On the % scale 0 is the no-effect control and ±100 the full control effect; potency means the concentration at half of the fitted maximal effect; tags describe the fitted curve by direction and shape.

Question: Which “activity, negative = inhibition” value does the source give for `Cc1cccc(N2C(=O)CC(SC(=Nc3ccccc3)Nc3ccccc3)C2=O)c1` (centres undefined) here?
Answer: inactive: 7.01%

Question: Which “activity, negative = inhibition” value does the source give for `O=C1OC(c2ccc(F)cc2)=C/C1=C\c1ccc(O)cc1` here?
Answer: inactive: 0.785%

Question: Which Potency does the source give for `C/C(=N\NC(=O)COc1ccc(C)cc1Br)c1cc([N+](=O)[O-])cs1` here?
Answer: inconclusive: 17.8 µM [inhibitor, single point]

Question: With `O=C(COC(=O)c1ccc(Cl)cc1)NCC1CCCCC1` as the compound, how does the “activity, negative = inhibition” value read?
Answer: inactive: 15.7%

Question: Which Potency does the source give for `CSc1sc(C)cc1/C=N/O` here?
Answer: inconclusive: 0.355 µM [inhibitor, full curve, poor fit]

Question: With `CCc1ccc(C(=O)CC2(O)C(=O)N(CN3CCOCC3)c3ccccc32)cc1` (centres undefined) as the compound, how does the Potency read?
Answer: inconclusive: 6.31 µM [inhibitor, single point]

Question: With `C/C(=N\Nc1cc(N2CCCCC2)nc(C)n1)c1ccc(Br)cc1` as the compound, how does the Potency read?
Answer: active: 10 µM

Question: For `OCCCCNCc1ccc(OCc2ccc(Cl)cc2)cc1`, which Potency is on record?
Answer: inconclusive: 25.1 µM [inhibitor, single point]

Question: For `CCOC(=O)Cc1csc(NC(=S)NC(=O)c2ccccc2)n1`, which “activity, negative = inhibition” value is on record?
Answer: inactive: -19.1%

Question: For `COc1ccc(/C=N/NC(=O)c2cc(OC)c(OC)c(OC)c2)cc1CN1CCc2cc(OC)c(OC)cc2C1C` (centres undefined), which Potency is on record?
Answer: inconclusive: 31.6 µM [inhibitor, single point]

Question: For `CCOC(=O)c1sc(NC(=O)CSc2nc3ccccc3o2)c(C(=O)OCC)c1C`, which “activity, negative = inhibition” value is on record?
Answer: inactive: -0.542%

Question: Which Potency does the source give for `CN(C(=O)COc1ccccc1C(=O)NCCOc1ccccc1)c1ccccc1` here?
Answer: inconclusive: 14.1 µM [inhibitor, single point]

Question: Which Potency does the source give for `O=c1c(Cl)c(N/N=C/c2ccc(Cl)cc2)cnn1-c1ccccc1` here?
Answer: inconclusive: 8.91 µM [inhibitor, partial curve, poor fit]

Question: With `O=C(NCc1cccc2ccsc12)c1cccs1` as the compound, how does the “activity, negative = inhibition” value read?
Answer: inactive: -4.41%

Question: Which Potency does the source give for `CCc1ccccc1NC(=O)CC(c1ccc(F)cc1)N1Cc2ccccc2C1=O` (centres undefined) here?
Answer: inconclusive: 35.5 µM [inhibitor, single point]

Question: With `CCOC(=O)c1cc2c(=O)n3ccccc3nc2n(Cc2ccco2)c1=NC(=O)c1cc(C)cc(C)c1` as the compound, how does the “activity, negative = inhibition” value read?
Answer: inactive: -21.7%

Question: With `CCn1c(CSc2nccn2C)nc2cc(C(=O)O)ccc21` as the compound, how does the Potency read?
Answer: inconclusive: 35.5 µM [inhibitor, single point]

Question: For `COc1ccc(C2CCCN2C(=S)Nc2cccc(C)c2)cc1OC` (centres undefined), which “activity, negative = inhibition” value is on record?
Answer: inactive: -19.1%

Question: Which Potency does the source give for `O=C(COC(=O)c1ccccc1C(=O)c1ccc(Cl)cc1)NCc1ccccc1` here?
Answer: inconclusive: 12.6 µM [inhibitor, single point]

Question: With `Cc1ccc(Cn2c(C)c(CNC3CCCCC3)c(C(=O)O)c2C)cc1` as the compound, how does the Potency read?
Answer: inconclusive: 35.5 µM [inhibitor, single point]

Question: For `CN(Cc1ccccc1)C(=O)NC1CCCCC1`, which Potency is on record?
Answer: inconclusive: 35.5 µM [inhibitor, single point]

Question: Which Potency does the source give for `CC1=Nc2cc(C(=O)NCCCN3CCN(C)CC3)ccc2Sc2ccc(C)cc21` here?
Answer: inconclusive: 35.5 µM [inhibitor, single point]

Question: With `N#CC1=C(N)Oc2[nH]c(=S)[nH]c(=O)c2C12C(=O)Nc1ccccc12` (centres undefined) as the compound, how does the Potency read?
Answer: inconclusive: 20 µM [inhibitor, single point]

Question: For `CCOC(=O)[C@H]1O[C@@H]1C(=O)N[C@@H](CC(C)C)C(=O)NCCC(C)C`, which Potency is on record?
Answer: inconclusive: 35.5 µM [inhibitor, single point]

Question: Which Potency does the source give for `Cc1sc2ncnc(N3CCC(C(=O)Nc4ccc(F)cc4Cl)CC3)c2c1C` here?
Answer: inconclusive: 15.8 µM [inhibitor, single point]

Question: For `CCCCN(C)C(=O)Cc1c(OC)ccc2cc(Br)ccc12`, which Potency is on record?
Answer: inconclusive: 1 µM [inhibitor, full curve, poor fit]

Question: For `O=C(/C=C\c1ccco1)Oc1cccc2cccnc12`, which Potency is on record?
Answer: active: 3.16 µM

Question: Which Potency does the source give for `Cc1cc2cccc(C)c2nc1SCC(=O)NCC1CCCO1` (centres undefined) here?
Answer: inconclusive: 35.5 µM [inhibitor, single point]

Question: With `COc1cccc(NC(=S)Nc2cc(C)cc(C)n2)c1` as the compound, how does the Potency read?
Answer: inconclusive: 3.55 µM [inhibitor, single point]

Question: Which Potency does the source give for `CN(C)S(=O)(=O)c1cccc(NC(=O)CSc2ncnc3ccccc23)c1` here?
Answer: inconclusive: 15.8 µM [inhibitor, single point]

Question: For `CC(=O)N1CCN(C(=O)c2cc3c(s2)CCC(C)C3)CC1` (centres undefined), which Potency is on record?
Answer: inconclusive: 14.1 µM [inhibitor, single point]

Question: For `CCc1ccc(NC(=O)CSC2=Nc3ccccc3C3=NC(CCC(=O)NCc4cccs4)C(=O)N23)cc1` (centres undefined), which “activity, negative = inhibition” value is on record?
Answer: inactive: 8.86%

Question: Which Potency does the source give for `CN(C)c1ccc(NC(=O)Nc2nc(C(N)C3CCCCC3)cs2)cc1` (centres undefined) here?
Answer: inconclusive: 14.1 µM [inhibitor, single point]

Question: For `CCC(=O)Nc1ccc(OCC2CCCO2)cc1` (centres undefined), which “activity, negative = inhibition” value is on record?
Answer: inactive: -5.18%

Question: For `COc1ccc(CCNC(=O)c2ccc(CS(=O)(=O)c3ccc(C)cc3)o2)cc1OC`, which Potency is on record?
Answer: inconclusive: 12.6 µM [inhibitor, single point]

Question: Which “activity, negative = inhibition” value does the source give for `CCn1cc(C(=O)OCC(=O)c2cc(C)n(-c3cccc(C(F)(F)F)c3)c2C)c(=O)c2ccc(C)nc21` here?
Answer: inactive: -21.3%

Question: For `Cc1cc(C)c(NS(=O)(=O)c2ccc(NC(=O)c3cccs3)cc2)c(C)c1`, which Potency is on record?
Answer: inconclusive: 11.2 µM [inhibitor, single point]

Question: Which Potency does the source give for `CCOC(=O)[C@H]1[C@H]2COc3ccc(Br)cc3[C@@H]2N2C(=O)CN(Cc3ccc(C)cc3)C(=O)[C@@]12C` here?
Answer: inconclusive: 10 µM [inhibitor, partial curve, poor fit]

Question: Which Potency does the source give for `COc1ccc(-c2cnc(SCC(=O)Nc3ccc4c(c3)OCO4)n2Cc2ccco2)cc1` here?
Answer: inconclusive: 12.6 µM [inhibitor, single point]

Question: With `COc1cccc(N2CCN(S(=O)(=O)c3ccc(-c4cnc(C5CC5)o4)cc3)CC2)c1` as the compound, how does the Potency read?
Answer: inactive

Question: For `Cc1c(C(=O)OCC(=O)N(CC(C)C)c2c(N)n(Cc3ccccc3)c(=O)[nH]c2=O)oc2ccccc12`, which Potency is on record?
Answer: inconclusive: 0.447 µM [inhibitor, full curve, poor fit]

Question: Which “activity, negative = inhibition” value does the source give for `Cc1csc(NC(=O)c2cnc3ccccc3n2)n1` here?
Answer: inactive: -8.32%

Question: With `COc1ccc(NC(=O)c2c(C)oc3ccc(O)c(CN4CCN(C)CC4)c23)cc1Cl` as the compound, how does the Potency read?
Answer: inconclusive: 0.398 µM [inhibitor, full curve, poor fit]

Question: With `COc1cccc(-c2sc3ccc(OC)cc3c2C#CC2(O)CCCCC2)c1` as the compound, how does the Potency read?
Answer: inconclusive: 35.5 µM [inhibitor, single point]
